In the supplement of paper PMC10126150:
Values marked as one replicate rest on one cluster of the flow cell; about a third of the high ones do not repeat.

Tested on: ATP
Experiment: switch fluorescence ratio, 500 uM ATP over buffer (Cy3 cluster intensity, sum of 5 cycles each) (fold (ratio)); higher = stronger signal-on switching upon ATP binding; sequences stand for … in TCGTCGGCAGCGTCAGATGTGTATAAGAGACAGTTTTTTTTTTTTTTTTTTTTTTTTT…TC
Conditions: aptamer strand: ATP DNA aptamer (quencher-CACCTGGGGGAGTATTGCGGAGGAAGG + anchor), 100 nM annealed; ATP concentration: 500 uM; one replicate
Procedure, shortened: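 For every switch-domain sequence, the fluorescence ratio is the mean of per-cluster values, each being summed target-cycle Cy3 intensity over summed buffer-cycle Cy3 intensity. Clusters outside 100-1000 RFU were excluded. On a modified Illumina MiSeq flow-cell, the Cy3-labelled switching-strand clusters were annealed to 100 nM quencher-labelled ATP aptamer, imaged in selection buffer and then after 15 min with 500 uM ATP at 22 °C. Five such cycles were run, with NaOH stripping and re-annealing between them.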
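Further: ATP exposure 15 min at 22 °C before imaging.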

ATCAGTCATA
switch fluorescence ratio: 0.971

TGGTCGCGAA
switch fluorescence ratio: 1.01

CTTATTGGAG
switch fluorescence ratio: 0.971

GCTTATAAGG
switch fluorescence ratio: 1.01

GTGCCTATTG
switch fluorescence ratio: 1.03

CAGGCCACTT
switch fluorescence ratio: 0.994

ATAGACGCGT
switch fluorescence ratio: 0.948

TTAGTCGGTG
switch fluorescence ratio: 1.06

GGAAACCGAT
switch fluorescence ratio: 1.27

CTAATGGGAT
switch fluorescence ratio: 0.97

AGTTTACGTT
switch fluorescence ratio: 0.986

GATCGTGTTT
switch fluorescence ratio: 0.999

GCTTCAGGCA
switch fluorescence ratio: 1.04

CTGAGTAGTG
switch fluorescence ratio: 1.02

GTCGGAGCTA
switch fluorescence ratio: 1.39

CTGCTACGAT
switch fluorescence ratio: 1.16

AATTGATCAT
switch fluorescence ratio: 0.99

ACAGTTTTGT
switch fluorescence ratio: 1.01

GACTACAATT
switch fluorescence ratio: 1.04

TTTGTACCT
switch fluorescence ratio: 1.19

CAGGGATCAT
switch fluorescence ratio: 0.977

GGTGGCCCCC
switch fluorescence ratio: 1.02

CTCAGAAGTT
switch fluorescence ratio: 0.999

ATAACAACCA
switch fluorescence ratio: 1.07

TTTGTTCAGT
switch fluorescence ratio: 0.952

TTGGCACATG
switch fluorescence ratio: 0.983

GACAGCGCCT
switch fluorescence ratio: 1.04

TGAGAATAGA
switch fluorescence ratio: 1.03

TGTTTGTCAG
switch fluorescence ratio: 1.07

TTCGCATGGG
switch fluorescence ratio: 1.15

TGTTAGCAGC
switch fluorescence ratio: 1.08

GCTGAAGGAG
switch fluorescence ratio: 1

ATCGTCCTTA
switch fluorescence ratio: 0.973

TGCAGGCCT
switch fluorescence ratio: 0.964

CGACTAAGCT
switch fluorescence ratio: 1.06

TTTTTACCTC
switch fluorescence ratio: 0.956

GGAAATGTCT
switch fluorescence ratio: 0.972

GTTCTATGTG
switch fluorescence ratio: 0.989

TTTAAAGTG
switch fluorescence ratio: 0.999

TCCGGCGTA
switch fluorescence ratio: 0.992

GGGGAGTTAA
switch fluorescence ratio: 0.937

GACCCACCGC
switch fluorescence ratio: 1.51

AAGCCTCCAC
switch fluorescence ratio: 1.18

ATTGCGAGAA
switch fluorescence ratio: 0.994

TTGATGTAGC
switch fluorescence ratio: 0.964

TCAGTCTGCA
switch fluorescence ratio: 1.15

ATTACCCCTT
switch fluorescence ratio: 1.06

GGCCATTTTG
switch fluorescence ratio: 1.02

ACACTCCACA
switch fluorescence ratio: 1.45

CAGGTCAGTT
switch fluorescence ratio: 0.983

GCGTTCCCTT
switch fluorescence ratio: 1.01

GGACTAAC
switch fluorescence ratio: 1.01

ATGTGTTTCG
switch fluorescence ratio: 1

AGGTCTAGTA
switch fluorescence ratio: 0.953

GGCAGTTTGA
switch fluorescence ratio: 0.992

GTGTTTACTA
switch fluorescence ratio: 1.02

AAAGAGTCAG
switch fluorescence ratio: 1.02

GACCCTAGCT
switch fluorescence ratio: 1.04

TGAGCTCAAG
switch fluorescence ratio: 0.994

GGCACACGT
switch fluorescence ratio: 1.01

GTGATAGATA
switch fluorescence ratio: 0.986

TTGGGTAACA
switch fluorescence ratio: 0.975

CCAACAGCCT
switch fluorescence ratio: 1.24

GGGGTCTACG
switch fluorescence ratio: 1.01

AGGCAGCTG
switch fluorescence ratio: 1.04

TTCTGAATAG
switch fluorescence ratio: 1.04

CAAATAATGT
switch fluorescence ratio: 1.04

GGCTATATCA
switch fluorescence ratio: 0.984

GGGCGACTGA
switch fluorescence ratio: 1.02

ACTTTATGCG
switch fluorescence ratio: 1.04

ACGCCTTGGA
switch fluorescence ratio: 0.998

GTGTGTAAAT
switch fluorescence ratio: 0.952

ATAAGGATCA
switch fluorescence ratio: 0.99

AATATCTTGA
switch fluorescence ratio: 1.07

GTGAAGAATT
switch fluorescence ratio: 0.976

AGATTTCTT
switch fluorescence ratio: 0.97

TCACTCGTCG
switch fluorescence ratio: 0.999

AACTGTTGAC
switch fluorescence ratio: 1.09

AAGCAGTGAT
switch fluorescence ratio: 0.973

CATTTTTAAT
switch fluorescence ratio: 1.01

CGCGCGGCTA
switch fluorescence ratio: 0.981

AGTTTCGTGG
switch fluorescence ratio: 1.03

TAATGCCCGC
switch fluorescence ratio: 0.999

TTTCCTAGGG
switch fluorescence ratio: 0.975

TAGAATTAAG
switch fluorescence ratio: 0.977

ATATATGGCG
switch fluorescence ratio: 0.955

TCTTATGGAG
switch fluorescence ratio: 0.979

TCGTCTTTAC
switch fluorescence ratio: 1.68

TTTTTAGGA
switch fluorescence ratio: 0.991

GTGAGTTCGG
switch fluorescence ratio: 1.04

GTTAGTTCCG
switch fluorescence ratio: 0.982

CGGTTCTCTT
switch fluorescence ratio: 1

TAAGCCCATC
switch fluorescence ratio: 1.04

GGGTATCTTT
switch fluorescence ratio: 1.01

CGGTTTTCGG
switch fluorescence ratio: 1.01

GGCGGGCTTC
switch fluorescence ratio: 1.02

AATCGGAAAA
switch fluorescence ratio: 0.996

GTGGCGACGG
switch fluorescence ratio: 1.06

ACAGCCGGGG
switch fluorescence ratio: 1.11

ATTACCTAAC
switch fluorescence ratio: 1.36

GGAAAGGAAG
switch fluorescence ratio: 1.04
